# From paper PMC4336329 (PLoS ONE, 2015)
# Screen size: about 310,000 compounds; about 14,000 (4.5%) showed an effect of 50% or more. The effect is printed as a negative number. Some of the results follow.
# Target: human ether-à-go-go-related gene (hERG) potassium channel (human, UniProt Q12809)
# Experiment: primary screen, population patch clamp on CHO cells stably expressing hERG
# 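Also: peak tail current of the secondary pulse compared with the same well before compound.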
# Sequence of human ether-à-go-go-related gene (hERG) potassium channel (Q12809 whole entry, looked up): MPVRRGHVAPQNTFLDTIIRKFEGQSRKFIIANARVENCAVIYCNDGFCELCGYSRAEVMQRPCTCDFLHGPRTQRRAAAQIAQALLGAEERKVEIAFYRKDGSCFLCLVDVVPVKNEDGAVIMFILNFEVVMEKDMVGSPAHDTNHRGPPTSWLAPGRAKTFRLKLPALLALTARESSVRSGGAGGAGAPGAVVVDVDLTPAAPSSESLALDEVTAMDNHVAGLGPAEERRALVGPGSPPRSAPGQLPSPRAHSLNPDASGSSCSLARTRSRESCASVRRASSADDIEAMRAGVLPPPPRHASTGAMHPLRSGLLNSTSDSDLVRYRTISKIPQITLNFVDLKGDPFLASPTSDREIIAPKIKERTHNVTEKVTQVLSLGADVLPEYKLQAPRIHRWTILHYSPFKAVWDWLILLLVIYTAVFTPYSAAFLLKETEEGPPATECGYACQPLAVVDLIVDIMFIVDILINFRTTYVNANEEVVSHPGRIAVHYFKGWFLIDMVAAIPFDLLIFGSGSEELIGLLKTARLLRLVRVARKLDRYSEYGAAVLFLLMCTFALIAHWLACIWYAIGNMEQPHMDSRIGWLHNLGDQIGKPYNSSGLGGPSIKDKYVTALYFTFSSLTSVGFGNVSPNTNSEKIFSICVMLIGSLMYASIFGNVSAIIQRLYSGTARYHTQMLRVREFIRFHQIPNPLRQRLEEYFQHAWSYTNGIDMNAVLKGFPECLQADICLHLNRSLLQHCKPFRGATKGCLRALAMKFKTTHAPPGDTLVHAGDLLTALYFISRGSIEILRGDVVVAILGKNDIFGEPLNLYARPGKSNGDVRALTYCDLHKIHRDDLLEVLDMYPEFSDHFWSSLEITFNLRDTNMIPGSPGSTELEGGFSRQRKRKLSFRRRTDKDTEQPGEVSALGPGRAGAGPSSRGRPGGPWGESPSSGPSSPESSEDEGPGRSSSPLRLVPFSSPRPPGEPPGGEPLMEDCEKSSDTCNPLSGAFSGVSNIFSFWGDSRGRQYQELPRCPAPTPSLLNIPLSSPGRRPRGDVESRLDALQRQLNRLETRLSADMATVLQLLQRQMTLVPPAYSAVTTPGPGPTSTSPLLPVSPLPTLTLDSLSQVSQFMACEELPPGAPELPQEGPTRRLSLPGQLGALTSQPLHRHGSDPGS
row,Compound,"hERG current change (%, negative = inhibition) at 10uM [%]"
1,Cc1nc(Cc2nnc(SCC(=O)N(C)c3ccccc3)o2)cs1,15.9
2,Cc1ccc(C)c(Nc2ccc(C(=O)NCCc3ccccc3)cn2)c1,-20.9
3,Cc1cc(C(F)F)n2nc(C(=O)Nc3cccnc3Cl)nc2n1,16.4
4,COCc1ccc(CN2CCCC(CCC(=O)NCc3cccc(OC)c3)C2)o1 (stereo not drawn),-23.5
5,CCOC(=O)Cn1c(=O)oc2cc(S(=O)(=O)NC3CCCc4ccccc43)ccc21 (stereo not drawn),8.52
6,COc1cccc(C(=O)N(CN2CCCC2=O)c2cccc(Cl)c2)c1,-25.4
7,CC1(C(=O)NC(=S)N(Cc2ccccc2)c2ccccn2)CC1(Cl)Cl (stereo not drawn),17.1
8,CC1CCCCC1NC(=O)c1ccc(S(=O)(=O)N2CCCC2)cc1 (stereo not drawn),10.3
9,Cc1nn(CC(=O)Nc2c(C)n(C)n(-c3ccccc3)c2=O)c(C)c1[N+](=O)[O-],8.37
10,COc1ccc(NC(=S)NC(=O)Cc2ccccc2)c(OC)c1,16.3
11,O=C(CN1C(=O)NC2(CCCC2)C1=O)Nc1nc2ccccc2[nH]1,14.3
12,CCc1ccc(C(=O)OCC(=O)NCCNC(=O)COC(=O)c2ccc(CC)cc2)cc1,10.7
13,CCOc1cc(C2C(C(=O)OC)=C(C)N=C3SC(C)C(=O)N32)ccc1OC(C)=O (stereo not drawn),-7.61
14,c1ccc(-c2noc(-c3ccccc3-c3ccccc3)n2)cc1,5.26
15,COc1ccc(C(=O)NNC(=O)CN2CCC(n3nnc4cc(C(F)(F)F)ccc43)CC2)cc1,-10.4
16,CC(C)N1C(=O)c2ccc(C(=O)O)cc2C1=O,4.83
17,CCOC(=O)CN1N=C(c2ccc(C)cc2)CCC1=O,-47.2
18,Nn1c(SCC(=O)NCCN2C(=O)CSC2=O)nnc1-c1ccc(OC(F)F)cc1,13.2
19,CC(=O)O[C@]1(C(C)=O)CC[C@H]2[C@@H]3C=C(Cl)C4=CC(=O)CC[C@]4(C)[C@H]3CC[C@@]21C,-25.1
20,Cc1ccc(S(=O)(=O)N2CCCN(S(=O)(=O)c3ccc4c(c3)OCCO4)CC2)cc1,-3.4
21,C(=NC12CN3CN(CN(C3)C1)C2)c1cccs1,18.9
22,O=c1oc2ccccc2c(NC2CCCCC2)c1NS(=O)(=O)c1ccc(F)c(Cl)c1,27.2

row,Compound,"hERG current change (%, negative = inhibition) at 10uM [%]"
1,CC(=O)Nc1ccc(NC(=O)C2CCCCC2C(=O)O)cc1 (stereo not drawn),7.4
2,CC(C)(Oc1ccc(C2CC2(Cl)Cl)cc1)C(=O)O (stereo not drawn),-7.57
3,O=C(Nc1nccs1)C1CCN(S(=O)(=O)c2cccs2)CC1,-24.1
4,Cl.O=C(NCCCn1ccnc1)c1cccc(S(=O)(=O)N2CCCCCC2)c1,-17.7
5,Cc1ccc(-c2c[n+](CC(=O)Nc3ccccc3)c3n2CCC3)cc1.[Cl-],-27.8
6,O=C(c1cccn2c(=O)c3cc(Br)ccc3nc12)N1CCC2(CC1)OCCO2,-37
7,CCOC(=O)c1c(NC(=O)C2=C(C)NC(=S)NC2c2ccc(F)cc2)sc(C)c1C (stereo not drawn),0.0855
8,O=C(NCCc1c[nH]c2ccccc12)N[C@@H](Cc1ccccc1)C(=O)O,15.6
9,Fc1ccc(NCc2nnc3n2CCCCC3)cc1,22
10,COc1ccc(OCCn2c(=O)sc3ccccc32)cc1,-8.81
11,CCOC(=O)CCC(=O)NNC(=O)c1ccc(NC(=O)c2ccccc2)cc1,12.7
12,O=C(NCc1ccccc1Cl)c1nnc(CS(=O)(=O)c2ccccc2)o1,-21.5
13,O=C(/C=C/c1cccs1)N1CCN(Cc2ccc3c(c2)OCO3)CC1,-47.9
14,CC(C)(C)NC(=O)CN(CCc1ccccc1)C(=O)c1csnn1,17.2
15,CCn1c(-c2cc(-c3ccccc3)sc2N)n[nH]c1=S,11.5
16,CCc1ccc(-c2c(C)sc(NC(C)=O)c2C(N)=O)cc1,-12
17,CC(C)c1ccc(NC(=O)/C(C#N)=C/c2ccncc2)cc1,-28.6
18,COc1ccc(NS(=O)(=O)c2c(C(=O)N3CCCCCC3)c(C)n(C)c2C)cc1,9.93
19,COc1ccc(NC(=O)c2nc[nH]c2C(=O)N2CCN(c3ccccc3)CC2)cc1,3.64
20,COc1cccc(CNC(=O)C(C(=O)NCc2cccc(OC)c2)c2ncc(C(F)(F)F)cc2Cl)c1,32.4
21,C1=C(CCNC2=NCCCCC2)CCCC1,2.12
22,Cc1ccc(NNC(=O)c2ccc(Cl)cc2)nn1,15.8

row,Compound,"hERG current change (%, negative = inhibition) at 10uM [%]"
1,C=CCc1c(Cl)nc(C)nc1NCc1ccccc1,15.1
2,COc1ccc(CCNC2CCCCC2)cc1.O=C(O)C(=O)O,-15.9
3,COC(=O)c1cc(=O)n2c(sc3ccccc32)c1C#N,2.86
4,O=C1CSC2N1CCNC21CCCCC1 (stereo not drawn),6.94
5,CC(=O)NC(Cc1ccccc1)C(=O)N1CCN(C(=S)NCC(C)C)CC1 (stereo not drawn),-7.76
6,O=c1[nH]c(-c2ccccc2)c(-c2ccccc2)o1,6.13
7,Cc1nc2n(COCCO)cnn2c(=O)c1Br,14.6
8,Cc1cc(C)nc(NC(=O)c2cnc3sccn3c2=O)n1,0.473
9,Cc1cccc(NC(=O)/C=C/c2ccc([N+](=O)[O-])s2)c1,1.65
10,CCOc1cccc(NC(=O)C2CC(=O)NC(=Nc3ccccc3)S2)c1 (stereo not drawn),18.7
11,COc1ccc(N=C2NN=C(c3c(C)[nH]c4ccccc34)CS2)cc1.Cl,15.3
12,CCOC(=O)C1(CCC(C)C)CC(CSc2nc3ccccc3[nH]2)OC1=O (stereo not drawn),-25.2
13,Cc1ccc(/C=C2/CCc3c([nH]c4ccccc34)C2=O)cc1,26.8
14,OCC1(CC2CCCCO2)CCN(Cc2cccc(O)c2)CC1 (stereo not drawn),35.9
15,C=C[C@H]1[C@H](OC2OC(CO)C(O)C(O)C2O)OC=C(C(=O)OC)[C@H]1C[C@H]1CC(=O)C[C@H](CC(=O)CCc2ccc(O)cc2)O1 (stereo partly drawn),-18.1
16,CN1CCN(c2ccc([N+](=O)[O-])c(N/N=C3\CN4CCC3CC4)c2)CC1,5.51
17,Cc1cc2nc3n(c2cc1C)CCCN3,-7.22
18,C=CCn1c(=O)[nH]c2cc(C(=O)N3CCN(c4cc(C)ccc4C)CC3)ccc2c1=O,2.61
19,O=C(O)[C@@H]1CCCN1C(=O)COc1ccc2c3c(c(=O)oc2c1)CCC3,2.17
20,COC(CN(C(=O)CCl)C(C(=O)NC1CCCCC1)c1ccccc1C)OC (stereo not drawn),1.63
21,O=C(NCc1ccccc1F)C1CC(=O)N(c2ccc3c(c2)OCCO3)C1 (stereo not drawn),-2.83
22,O=C(NCc1ccc(F)cc1)C1CCN(S(=O)(=O)c2ccc(Cl)cc2)CC1,13

row,Compound,"hERG current change (%, negative = inhibition) at 10uM [%]"
1,CC(=O)O/N=C(/c1nonc1N)N1CCN(c2ccc([N+](=O)[O-])cc2Cl)CC1,-33.9
2,N#Cc1nc(Cc2cccc3ccccc23)oc1NCc1ccco1,-1.59
3,COc1ccccc1C(=O)N/C(=C/c1ccccc1)C(=O)NC(CCSC)C(=O)O (stereo not drawn),7.6
4,COC(=O)c1sccc1NC(=O)/C=C/c1c(Cl)cccc1Cl,14
5,CN1CCN(C(=O)C2=C[C@H](c3csc4ccccc34)C[C@H](OCc3ccc(CO)cc3)O2)CC1,-27
6,Nc1nc(-c2ccc3ccccc3c2)c(C2(O)C(=O)Nc3c(Br)cc(F)cc32)s1 (stereo not drawn),8.98
7,Cc1c(NC(=O)c2cc(-c3ccc4c(c3)OCO4)on2)c(=O)n(-c2ccccc2)n1C,-4.5
8,Cc1occc1C(=O)Nc1cc(S(=O)(=O)N2CCOCC2)ccc1OC(C)C,1.13
9,COc1cc(C(=O)O/N=C(\N)c2ccc([N+](=O)[O-])cc2)cc(OC)c1OC,-45.2
10,O=c1[nH]c(=S)n(Cc2ccco2)c(O)c1C=NCc1cccs1,-20.3
11,c1ccc2c(-c3nnc4n3CCCCC4)c[nH]c2c1,3.69
12,COc1cc(NC(=O)CNc2ccc(Cl)c(S(=O)(=O)N3CCOCC3)c2)cc(OC)c1,-1.36
13,O=C(CN(C(=O)Cn1nnc(-c2ccc(F)cc2)n1)c1ccc(F)c(Cl)c1)NCC1CCCO1 (stereo not drawn),-14.4
14,CNS(=O)(=O)c1ccc(C(=O)NCC(=O)NCCC(c2ccccc2)c2ccccc2)cc1,-24.5
15,COc1cc([N+](=O)[O-])cc(/C=N/NC(=O)Cn2cncn2)c1O,5.88
16,Cn1c(=O)c2c([nH]c(=O)n2C)n(Cc2ccccc2)c1=O,19.3
17,CCN(CC)S(=O)(=O)c1cccc(C(=O)NCC2CCCCC2)c1,-10.7
18,Cc1c(C(=O)N2CCN(c3ccccn3)CC2)oc2c1C(=O)CC(C)(C)C2,-13.2
19,O=C(COC(=O)Cn1cnc2ccccc2c1=O)Nc1ccc2c(c1)OCO2,-1.05
20,O=C(N/N=C/c1ccccn1)c1sc2ccccc2c1Cl,-21.6
21,CCOc1ccc(C(=O)NCC(=O)Nc2ccncc2)cc1OCC,4.58
